Over roughly 33,000 sequences, “E-score (-0.5 to 0.5)” has its median near -0.035; the highest 2% begin near 0.35. This is one part of the list.
Each sequence was assayed against T1, Pdr3 (UniProt P33200) (assay: PBM E-score (8-mer binding enrichment) (E-score (-0.5 to 0.5)); higher = stronger / more preferred TF binding; most listed sequences are background and not binding sites). Details: protein concentration: 200 nM; construct: GST-full length.
T1 sequence: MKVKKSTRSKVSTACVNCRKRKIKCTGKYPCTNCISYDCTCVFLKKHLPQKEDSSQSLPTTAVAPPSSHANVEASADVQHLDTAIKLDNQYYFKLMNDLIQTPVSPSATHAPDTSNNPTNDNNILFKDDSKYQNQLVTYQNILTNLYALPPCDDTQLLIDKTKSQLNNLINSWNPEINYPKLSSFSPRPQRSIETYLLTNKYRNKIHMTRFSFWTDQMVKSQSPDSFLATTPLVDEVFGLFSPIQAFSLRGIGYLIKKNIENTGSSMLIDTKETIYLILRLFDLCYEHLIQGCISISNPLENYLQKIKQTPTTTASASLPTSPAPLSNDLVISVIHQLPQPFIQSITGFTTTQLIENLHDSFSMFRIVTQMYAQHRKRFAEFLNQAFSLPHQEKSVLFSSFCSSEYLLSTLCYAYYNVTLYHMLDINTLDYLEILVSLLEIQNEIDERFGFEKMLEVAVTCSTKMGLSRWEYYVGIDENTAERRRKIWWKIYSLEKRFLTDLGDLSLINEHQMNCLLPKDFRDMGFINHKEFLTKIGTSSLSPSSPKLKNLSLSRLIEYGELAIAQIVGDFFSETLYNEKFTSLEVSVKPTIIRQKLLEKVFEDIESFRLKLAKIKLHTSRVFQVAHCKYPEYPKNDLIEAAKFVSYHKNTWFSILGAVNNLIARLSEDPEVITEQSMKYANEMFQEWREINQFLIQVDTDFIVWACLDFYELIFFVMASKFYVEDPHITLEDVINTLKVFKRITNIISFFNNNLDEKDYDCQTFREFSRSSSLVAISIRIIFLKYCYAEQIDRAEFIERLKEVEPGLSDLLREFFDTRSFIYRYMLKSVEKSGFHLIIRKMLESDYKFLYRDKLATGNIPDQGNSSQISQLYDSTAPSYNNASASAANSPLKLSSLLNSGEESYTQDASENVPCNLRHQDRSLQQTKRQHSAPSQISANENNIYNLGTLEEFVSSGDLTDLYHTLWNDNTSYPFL
Experimental: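 Universal 'all 10-mer' protein binding microarrays (Agilent AMADID 015681) probed with GST-tagged S. cerevisiae TFs (full-length or DBD) made by in vitro transcription/translation (PURExpress), about 100-200 nM. Bound TF was detected with fluorescent anti-GST. Each ungapped 8-mer (which stands for itself and its reverse complement) is scored by the PBM enrichment score (E-score), a modified Wilcoxon-Mann-Whitney statistic from -0.5 to +0.5, computed with the Universal PBM Analysis Suite. Scale: above 0.35 generally sequence-specific binding.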

| Sequence | PBM E-score |
| --- | --- |
| AGACTCAA | -0.24 |
| CTAAAACA | -0.144 |
| CCTCGGTC | -0.0478 |
| CATTAGAG | -0.234 |
| CTTAGAAC | -0.119 |
| AAATTATA | 0.238 |
| CATCTGGC | -0.0257 |
| CCGGAAGG | 0.421 |
| AACTATGC | 0.102 |
| CTTTAACC | -0.0243 |
| ACGTTGAG | -0.175 |
| AAGCCAAA | -0.123 |
| CATAGCCC | -0.0942 |
| ATAAACTG | 0.0284 |
| TAGAATAA | -0.0191 |
| CACAGGCC | -0.073 |
| GGGCACAC | -0.153 |
| CATTTCGA | -0.00856 |
| CTGGAATC | 0.02 |
| TCATTGAA | -0.301 |
| GAGCGGGA | 0.158 |
| AGCGATGG | 0.0716 |
| AAATGCTG | -0.155 |
| CTTGGTGA | -0.0771 |
| AATTAAGC | 0.106 |

| Sequence | PBM E-score |
| --- | --- |
| CCTGAGTA | -0.1 |
| CTGGCCGC | 0.019 |
| CTCAGTAA | -0.137 |
| GAATAAGA | 0.116 |
| CTCCGTGA | 0.301 |
| ACCTACAG | -0.0159 |
| GAGACTAC | -0.0463 |
| CCGAAAAC | -0.00202 |
| AAGACTGA | -0.282 |
| CCAATTAC | -0.099 |
| AATGGTAG | -0.0896 |
| GACCACAA | 0.0326 |
| GTCGCTGA | -0.103 |
| CATCAAGG | -0.27 |
| GTACTAAC | 0.0645 |
| ACATACAG | -0.134 |
| ATTATAAG | -0.0394 |
| GCTTAGGA | -0.264 |
| CCATTACA | 0.102 |
| CGGAGCCA | 0.331 |
| GAGGGCAC | -0.232 |
| ACCCTTTA | -0.0141 |
| ACGGCAAA | 0.121 |
| AGCCCCCC | -0.244 |
| CAATATCG | 0.126 |

| Sequence | PBM E-score |
| --- | --- |
| CGCAGAGC | 0.00344 |
| CTAACTGC | -0.181 |
| AACCCCCC | -0.307 |
| ATGCCCCC | -0.135 |
| GCATCTTA | -0.0006 |
| CCTATGCG | -0.0785 |
| AACCGTCG | 0.0101 |
| ATCCCGCA | 0.21 |
| CATCGTGC | -0.125 |
| AAAAGCGA | 0.106 |
| GTCCTTGA | -0.105 |
| CATGAAGA | -0.116 |
| AAGGGAGT | -0.269 |
| GTCCTATA | -0.111 |
| AGACGAAG | 0.0481 |
| CGACGATA | -0.105 |
| AAATGCAA | -0.233 |
| AACGTGGA | -0.116 |
| ACGCAAAG | -0.209 |
| AAAGTCCT | -0.0618 |
| GTGTCTAA | -0.331 |
| ACGACTTG | -0.242 |
| CTGCTTAC | -0.21 |
| AGCCCACG | -0.0622 |
| ACAACAGC | -0.185 |

| Sequence | PBM E-score |
| --- | --- |
| AGTTCTGA | -0.225 |
| CGCGTATC | 0.0575 |
| ATTCCGGG | 0.458 |
| AGGTAATC | -0.0608 |
| AAAGGGCA | -0.113 |
| ATAAGACA | -0.183 |
| CAACTTCA | -0.0591 |
| TGGGAACA | 0.0839 |
| GCACTACC | -0.0798 |
| AGGTAACA | -0.0376 |
| GAATGAAC | 0.0564 |
| GCAATCCC | 0.314 |
| AAGCAGCG | 0.017 |
| ACAGTCGA | -0.293 |
| AAAAGAAA | 0.00526 |
| GAACCCGA | 0.251 |
| CAGAACGC | 0.0429 |
| CCCTCGGC | 0.173 |
| GAGTCTCC | 0.0351 |
| CAAATCTA | -0.149 |
| GCAAACAC | -0.108 |
| CTGTTCTC | -0.0802 |
| CGCGAACC | 0.145 |
| AAGTTTTC | -0.0868 |
| CGACAAAG | 0.0309 |

| Sequence | PBM E-score |
| --- | --- |
| ATTCCTGC | 0.221 |
| TACCCAAA | -0.132 |
| CCGCAAAC | 0.159 |
| GCACGCGA | 0.117 |
| CTAAGTCC | -0.193 |
| GGGGTGAC | -0.0259 |
| CTGAGTTC | 0.0504 |
| CTCACTCC | 0.12 |
| CATATTTC | 0.106 |
| CCGATTGC | 0.244 |
| CAACAATG | 0.00643 |
| CGTTCCCA | -0.0584 |
| CCCCATAG | -0.0107 |
| GTGGACAC | 0.0518 |
| ATAGTCCA | -0.086 |
| AGCATCAG | -0.128 |
| CCGTCGAA | 0.0963 |
| AAATATTA | 0.189 |
| ACGAGGTA | 0.00408 |
| ATCAATCC | 0.111 |
| ACACTATG | -0.0656 |
| ACTTGTAT | -0.0576 |
| GGGCAACC | -0.0646 |
| AGCTCAAG | -0.171 |
| CTATAGGC | -0.0914 |

| Sequence | PBM E-score |
| --- | --- |
| CTTGAAAG | -0.27 |
| CCACCGAG | 0.0244 |
| GCGCGAGC | 0.0964 |
| ACAAATGG | -0.192 |
| CTGTACTA | -0.0992 |
| CTACACGC | -0.294 |
| AAGTTACA | -0.162 |
| TAGTGTGA | -0.114 |
| AGTCGCGA | 0.101 |
| AGCTATCC | 0.0653 |
| AGGTTCAT | -0.0286 |
| CGTAACTC | -0.112 |
| CATACCAC | 0.0126 |
| CCGCGTGC | 0.153 |
| GATTAAAA | 0.057 |
| CACATGGC | -0.0488 |
| AGAAGACC | -0.109 |
| CCCGGGAC | 0.451 |
| TCACAAAA | 0.0917 |
| CTTGTGTC | 0.0194 |
| CCCTGGAA | -0.172 |
| AGCACGGA | 0.311 |
| ACACACCC | 0.0755 |
| TGGATAAA | 0.103 |
| ACGTATCC | -0.0705 |

| Sequence | PBM E-score |
| --- | --- |
| CGTTGTCC | 0.126 |
| CCCGAGGC | 0.175 |
| ATGCCAAG | -0.164 |
| CCAACTCG | 0.0294 |
| ACGGGTTA | -0.111 |
| CCTGCCGA | 0.0392 |
| TCCATAGA | -0.0676 |
| GTACACTA | -0.256 |
| CTATGGCC | -0.124 |
| TGGGGACA | -0.0243 |
| GAGTCTCA | -0.175 |
| AGACATTA | -0.107 |
| CAAAGGCG | -0.165 |
| ATTGTGAA | -0.117 |
| GCAAGGTA | -0.15 |
| CAGCCCCA | 0.0418 |
| CCTATGAA | -0.0726 |
| GGATACAA | 0.132 |
| ACCTCACA | -0.0677 |
| CACCGCGG | 0.452 |
| ACCTCGAG | 0.0826 |
| CATTATTA | 0.0664 |

— the supplement of paper PMC3334620
